Measurements taken from the supplement of paper PMC8821664.
Structures can show the parent of a compound that is named as a salt. The list shows a part of the results. Many values rest on one well or one pass, so single values are uncertain.

System: Beas-2B AQP5-HiBiT reporter cells
Test: AQP5-HiBiT luminescence relative to vehicle (ratio to vehicle); higher = higher AQP5-HiBiT protein abundance
Settings: 10 µM; 18 h
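Note: monoclonal Beas-2B line stably carrying CMV promoter-driven AQP5-HiBiT, 5,000 cells per well in 384-well plates, lytic HiBiT plus LgBiT NanoLuc luminescence, FDA-approved drug library screen.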

SMILES | AQP5-HiBiT luminescence
C[C@]1(Cn2ccnn2)[C@H](C(=O)O)N2C(=O)C[C@H]2S1(=O)=O [Tazobactam acid] | 1.05
CC(C)(Oc1ccc(C(=O)c2ccc(Cl)cc2)cc1)C(=O)O [Fenofibric acid] | 0.922
Clc1ccc(C(Cn2ccnc2)OCc2ccsc2Cl)c(Cl)c1 (configuration not stated) [Vagistat] | 0.477
OC[C@@H](O)[C@@H](O)[C@H](O)[C@H](O)CO [D-Mannitol] | 0.817
Nc1nc(=O)[nH]cc1F [Fluorocytosine] | 0.778
Cc1c(-c2ccccc2)oc2c(C(=O)OCCN3CCCCC3)cccc2c1=O [Flavoxate hydrochloride] | 1.24
COc1ccc2[nH]c([S@@+]([O-])Cc3ncc(C)c(OC)c3C)nc2c1 [Esomeprazole Magnesium] | 1.1
CO[C@H]1O[C@@H]2O[C@@]3(C)CC[C@H]4[C@H](C)CC[C@@H]([C@H]1C)[C@@]24OO3 [Artemether] | 1.37
CC(NCCc1ccc(O)cc1)C(O)c1ccc(O)cc1 (configuration not stated) [Ritodrine hydrochloride] | 0.675
CCCc1nn(C)c2c(=O)[nH]c(-c3cc(S(=O)(=O)N4CCN(C)CC4)ccc3OCC)nc12 [Sildenafil] | 1.3
NC[C@@H]1O[C@H](O[C@H]2[C@@H](O)[C@H](O[C@@H]3[C@@H](O)[C@H](N)C[C@H](N)[C@H]3O[C@H]3O[C@H](CO)[C@@H](O)[C@H](O)[C@H]3N)O[C@@H]2CO)[C@H](N)[C@@H](O)[C@@H]1O [Paromomycin Sulfate] | 0.853
CC(=O)OCC(=O)[C@@]1(O)CC[C@H]2[C@@H]3CCC4=CC(=O)CC[C@]4(C)[C@@]3(F)[C@@H](O)C[C@@]21C [Fludrocortisone acetate] | 0.692
